From publication PMC12136788
Some of the results follow.

B1: 114133280_114145501_871_3pUTR_ENSMUSG00000033545_ENSMUST00000095176|mouse|control|control (ssRNA)
RNA: GGGAGUUCUACAGUCCGACGAUCAUGCAGCUUUUGUGAUAGAUGCACAGGCAAGGCAGCCUGGCUAUCGUGUCCCCCUGAAGCAGCUCCUCCAGGCAGAUCACACACUCACCCGCAUCUUUAGUCAGCACAUCAUCAUUGUAGCAACAGAGGAUUGAGCAUCA
B2: chr7:151048522:151048523:+_ENSG00000013374_ENST00000566856|hu_mus|hu_hu_hu_mus_True|48_108 (ssRNA)
RNA: GGGAGUUCUACAGUCCGACGAUCCUGCUUCUUAUUUAUUACGAUCUUGAUGUAAUUUUCUUGAAAUCCGAAAGUUUCAGCUAUUUGGGACCUCAGUUCUCUACCAGUGACAUGCAAGCGGGUCUCCAACAAGCUUUUCUUAUCCAACAGAGGAUUGAGCAUCA
B3: chr8:112747817:112747818:+_ENSMUSG00000046441_ENSMUST00000056972|mus_hu|FALSE|FALSE (ssRNA)
RNA: GGGAGUUCUACAGUCCGACGAUCAAACAUGAUCUUUGGUUUAAAGCUGUCCCGUUAUAUUUUUAUAGUUGGAUGGUGUGGUCAGUAAAAGAUUCAUACAACAGCAUACUAGUUUUAUUUGAGCCAUGUAAGAAAAUAGGGUCACAACAGAGGAUUGAGCAUCA
B4: chr11:46405157:46405158:+_ENSG00000110492_ENST00000395566|hu_hu|hu_hu_hu_mus_False|1_28 (ssRNA)
RNA: GGGAGUUCUACAGUCCGACGAUCCCCUCCCCACUUUGGGCACUUGGUGUGGGCGUGAGAGGACAGGCGUGAUUGACAGAGCUGACAGGAAGACAAAAGGCACUGGUGGGUCACAUCUUGGGCCUGUGGGAGAGGAGGCGUGGGCAACAGAGGAUUGAGCAUCA
B5: chr2:216981417:216981418:+_ENSG00000079246_ENST00000392132|hu_hu|hu_hu_hu_mus_True|8_98 (ssRNA)
RNA: GGGAGUUCUACAGUCCGACGAUCCUGAUACUGGUCCCCACCAGAAAGGGCAUUAUCAGUGCCAUCUGUGCCAUAGAGGACUAACGCAAUCUCAUCUUUGCUCUCCGAAAAUACCUGUCGUUGGACAAACAUGGUUAUCACUUUCAACAGAGGAUUGAGCAUCA
B6: chr8:32276666:32276667:-_ENSMUSG00000031578_ENSMUST00000033983|mus_hu|motif|central (ssRNA)
RNA: GGGAGUUCUACAGUCCGACGAUCACGGGGCCAGUAAAUCAGAUUUUCAUCUAUUUGCUCCAGUGCUUUCUCAUAGUUUUUACGGAGCCGGACCCGUUCCCAGAGACGCCGAGGAAAAGCCGCUCGUUCUAUAACCUUCAUAUACAACAGAGGAUUGAGCAUCA
B7: chr8:96496865:96496866:-_ENSMUSG00000031751_ENSMUST00000053766|mus_mus|motif|central (ssRNA)
RNA: GGGAGUUCUACAGUCCGACGAUCCAAGUCCAGUCAACACCAGAAGAGGCCAUGCCUAGAGUUAAAAUGUGCAAUGUUUCGGAGGGGAAGAGAAAUGUCACAAAGAAAGUAUUACAAAGGAUUAAAUUUGUCAGCUGUCCACACCAACAGAGGAUUGAGCAUCA
B8: chr1:192779330:192779331:+_ENSG00000116741_ENST00000235382|hu_hu|FALSE|FALSE (ssRNA)
RNA: GGGAGUUCUACAGUCCGACGAUCUUGCUGUUUGCUUUUUUUGCCGGUUUUGGGCUUCCCAGGAGUAGAGGAAUUUUGUAAGAAGUAGCUCAAACGGGUCUUCCAAUCUUUUAAAAGGGUCCGUUUCAUCUUUUCUCGCUUCUCCAACAGAGGAUUGAGCAUCA
B9: chr3:148802587:148802588:-_ENSG00000071794_ENST00000310053|hu_mus|hu_hu_hu_mus_False|68_68 (ssRNA)
RNA: GGGAGUUCUACAGUCCGACGAUCUCCAACAACUUGUCCUCUCAUAGUUCCAAAUAAAACCAAAUCUACUUCUUCAUCACUCGUUAGGAAGUCAUCUGGAGGAAUAAUGUCUUGGAAUUCAAAAUGUGGCAAGAAAGUUGAGUACAACAGAGGAUUGAGCAUCA
B10: chr7:77240115:77240116:+_ENSG00000127947_ENST00000248594|hu_mus|FALSE|FALSE (ssRNA)
RNA: GGGAGUUCUACAGUCCGACGAUCUUCAUACUGCUCCUUUGUUUGUACUGCCGAGUGCCUCUGUGUUCUCAUUUCUUGUAUUAAAUUAAAUACAUUAAAUUCCUCUGGAAUUUUCCCUGCUUUCAGUAAGUUCCACGUGUAAUCCAACAGAGGAUUGAGCAUCA
B11: chr3:139257661:139257662:-_ENSG00000114115_ENST00000232219|hu_mus|motif|central (ssRNA)
RNA: GGGAGUUCUACAGUCCGACGAUCCACACACUGGAGUUUGUCACCAUCCCAGCUCACAGUGGUCAUGCACUUGCGGUCGUCGGUGCCUGUCAGAUCUUCCUCAAACUCCUUCCCAACUUGGAAGUCCAUGAUAUAGUUCCGAAACAACAGAGGAUUGAGCAUCA
B12: chr2:104430758:104430759:+_ENSMUSG00000027176_ENSMUST00000028599|mus_hu|FALSE|FALSE (ssRNA)
RNA: GGGAGUUCUACAGUCCGACGAUCGCUGAUUACAACGUGCGCACUGACCGUCGAUGGGAAGCUAGAAAAGAAAAAUUAAACUAAAAACCACCCCCAAAUCAGUAAAGUUACCCCCUGCCCAGCUGAGCCAGACCGCCAACACCACAACAGAGGAUUGAGCAUCA
B13: chr2:44428564:44428565:+_ENSG00000138032_ENST00000378551|hu_hu|motif|central (ssRNA)
RNA: GGGAGUUCUACAGUCCGACGAUCAAGAGCAGAUCCUGAUUUUCCAGCUGCCCUAAAGUCUUCGUUAGUAGUGAUGUGUUCGGAUAAAUGUGUUGAGCAGUAAUUUGCCACUCGGGAUCCAGCAUGACCAUCAUAAACUGCAAACAACAGAGGAUUGAGCAUCA
B14: 201681831_201681951_920_CDS_ENSG00000082153_ENST00000409600|human|control|control (ssRNA)
RNA: GGGAGUUCUACAGUCCGACGAUCAUUUUCAUUAUAAAGGCUAUUAAGAAUGGAUGCAUUAAGUGUUCCAUUAGCCAGAAGAACACCAGUCAACAUAGCUAGCUUGUUCCUCUCCGACUCUGAAAAACCCUUCAAGAACAGCAGCAACAGAGGAUUGAGCAUCA

target: T1, UNK ZnF1-3 (human, UniProt Q9C0B0 31-174); assay: nsRBNS (natural sequence RNA bind-n-seq); RBNS binding buffer (assumed for nsRBNS): 25 mM Tris pH 7.5, 150 mM KCl, 3 mM MgCl2, 0.01% Triton X-100, 500 ug/ml BSA, 20 U/ml SUPERase-In, 4 C; UNK is unkempt and MSI1 is Musashi-1; names of the RNAs are library labels; protein concentration not given here; high values mean tight binding
T1 sequence: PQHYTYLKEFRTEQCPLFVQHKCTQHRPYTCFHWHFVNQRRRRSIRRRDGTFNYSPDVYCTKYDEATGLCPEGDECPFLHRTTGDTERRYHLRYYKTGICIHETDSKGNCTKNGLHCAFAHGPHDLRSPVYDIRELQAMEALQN

Row | Binder | binding signal
1 | B1 | 1.02 enrichment R
2 | B2 | 0.712 enrichment R
3 | B3 | 1.5 enrichment R
4 | B4 | 2.44 enrichment R
5 | B5 | 0.926 enrichment R
6 | B6 | 0.81 enrichment R
7 | B7 | 2.49 enrichment R
8 | B8 | 0.589 enrichment R
9 | B9 | 1.24 enrichment R
10 | B10 | 0.565 enrichment R
11 | B11 | 0.962 enrichment R
12 | B12 | 2.24 enrichment R
13 | B13 | 1.05 enrichment R
14 | B14 | 0.853 enrichment R
